# According to ChEMBL document CHEMBL4888484, “Replenishing the malaria drug discovery pipeline: Screening and hit evaluation of the MMV Hit Generation Library 1 (HGL1) against asexual blood stage Plasmodium falciparum ,using a nano luciferase reporter read-out” (2022):
# Among all 150,000 compounds or so, about 540 (0.36%) showed an effect of 50% or more. This is one part of the list.
# Tested on: Plasmodium falciparum
# Assay: Primary screen in NF54 nanoGlo assay, in single point, at 2uM, 72h; a lower Z score goes with more inhibition
# Format: functional, Erythrocyte
# Details: timepoint 72 hour
Compound,% Inhibition,Z score
CC(C)(C)OC(=O)N[C@H](CO)Cc1c[nH]cn1,-2%,0.42
Nc1cccc(COCC(F)(F)C(F)F)c1,1%,-0.09
Cc1c(C(=O)NC2CCCC2)sc2ncnc(N(C)CCc3ccccn3)c12,-6%,1.12
O=C(Cn1cnccc1=O)NCC1(N2CCOCC2)CCCCC1,10%,-1.39
Cc1csc(C(C)(C)NC(=O)NCCC2=CCCC2)n1,36%,-4.89
CC(C)CC(=O)N1CC[C@H](CC(=O)N(C)Cc2ccccc2)C1,-2%,0.3
O=C(NCc1ccccc1OC1CCC1)c1ccc2nncn2c1,-1%,0.11
COc1ncnc(N)c1CNCC[C@H]1CCCO1,-5%,0.72
Cc1cc(C)cc(NC(=O)CN2CCC(C(=O)N3CCn4c3nc3ccccc34)CC2)c1,-13%,1.48
Cc1cc(-c2noc(CNC(=O)CN3CCOC3=O)n2)no1,11%,-1.36
CC12CCC(C(=O)N(c3cccc(S(=O)(=O)O)c3)C1=O)C2(C)C (stereo unspecified),-19%,2.7
C[C@@H](c1ccncc1)N(C)Cc1cnc2c(-c3ccccc3)cnn2c1,-20%,2.58
Cc1cc(COCC(=O)N2CCN(C)c3ccc(Cl)cc32)no1,-5%,0.85
Cc1nnsc1CN1CC[C@](C)(O)[C@H](O)C1,-7%,1.37
CC(C)(C)c1cc2n(n1)C[C@@](C)(C(=O)NC1CCCCCCC1)N(c1ccc(F)cc1)C2=O,-13%,2.04
N[C@@H](C(=O)NCc1cc2n(n1)CCN(C1CCCCC1)C2)c1ccccc1,-8%,1.48
Cc1n[nH]c(C)c1CCN(C)c1cc([C@H]2CCOC2)nc(N2CC(O)C2)n1,-2%,0.24
CN(C)c1cccc(CN2CCCc3c(cnn3C)C2)c1,-6%,1.07
O=C(c1cc2c(s1)CCCCC2)N1Cc2cnn(CCO)c2C1,-3%,0.29
COC(=O)C1C2CCC(C2)C1NC(=O)c1cccnc1C (stereo unspecified),0%,-0.02
COc1ncc(-c2nc(-c3ccccc3Cl)no2)cn1,9%,-1.07
OCCN(Cc1cnc(C2CC2)o1)c1ccccc1,-5%,0.49

Compound,% Inhibition,Z score
C#CCOc1ccccc1OC(=O)Cc1c(C)noc1C,6%,-0.99
COC1CCC(NC(=O)C2CCC(=O)N2)C1 (stereo unspecified),-11%,1.25
Cc1ccc(CN2C[C@@H](F)C[C@H]2C(=O)N2CCCN(C)CC2)cc1,-14%,1.8
Cn1ccnc1CC(NC(=O)N1CCCC(OC2CCC2)C1)c1ccccc1 (stereo unspecified),4%,-0.69
Cc1nc(-c2csc(S(=O)(=O)NCCN3CCCC3)c2)sc1C(=O)N1CCCC1,-14%,1.97
CCOc1ccc(-n2nc(CO)c(C(=O)NCc3ccccn3)n2)cc1,-17%,3.08
Nc1nccnc1C(=O)N(Cc1ccoc1)C1CCCCC1,4%,-0.64
Cc1ccc(F)cc1NS(=O)(=O)c1cc(-c2nc(C(C)(C)C)cs2)cs1,-10%,1.5
CN1CC2(CCN(C(=O)Cc3c[nH]c4ccccc34)CC2)C[C@H]1C(=O)N1CCOCC1,3%,-0.5
C[C@H](CCC(=O)N1CCCC1)[C@H]1CC[C@H]2[C@@H]3[C@@H](O)C[C@@H]4C[C@H](O)CC[C@]4(C)[C@H]3CC[C@]12C,-3%,0.36
Cc1c(CNC(=O)c2ncoc2C(C)(C)C)cnn1C,-2%,0.29
O=C1OC(N2C(=O)CC[C@H]2C(=O)NC2CCS(=O)(=O)C2)c2ccccc21 (stereo partly specified),-4%,0.72
Cc1cccc2c1O[C@H](C(=O)N1CC(C)(CC(F)(F)F)C1)C2,-10%,1.31
CCN(CC)[C@@]1(c2nnnn2C2CCCC2)CCN(C(=O)C2(C)CCCCC2)C1,-20%,2.67
Cc1ccc(CN(CCc2c[nH]c3ccccc23)Cc2nc(C(=O)NCC(C)C)co2)c(C)c1,-5%,1.02
COC(=O)Nc1ccccc1OCc1ncoc1C(C)C,-4%,0.52
O=C(Nc1nc2c(s1)CN(Cc1ccccc1)CC2)c1ccc2c(c1)CCCC2,24%,-2.99
CCC(CC)C1CC(NCc2csnn2)CCO1 (stereo unspecified),4%,-0.58
CC1CC1C(=O)Nc1nc(-c2cnn(C)c2)ns1 (stereo unspecified),-5%,0.8
CCn1cc(CN2CCn3c(C)nnc3[C@@H]2C(=O)N(C)C)c2ccccc21,-4%,0.47
CC[C@H](N)C(=O)N(C)Cc1cccs1,-13%,1.33
